# Experimental data: the supplement of paper PMC10338343
# ± gives the standard deviation. The entries are a selection whose mix differs from that of the whole data set.
# Test system: MIWI (PIWIL1) piRISC loaded with L1MC piRNA (30 nt)
# Assay: pre-steady-state target cleavage rate (min^-1); MIWI and MILI are mouse PIWI proteins and EfPiwi is from a freshwater sponge; tags in brackets are library labels; higher = faster piRNA-guided slicing of the target
# Details: guide: L1MC piRNA 5'p-UAACUAAAUACUAUGCAAGCUGUAGGUCCU
# In short: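 Reactions were run for 0–8 or 0–960 min at 33 °C in HEPES–potassium acetate buffer, combining 1 nM active affinity-purified piRISC with one synthetic guide, […] transcribed, DNA-blocked target RNA library and, in some cases, 500 nM GTSF1 partner protein. Sequencing of uncleaved targets followed, with normalisation to depth and to weakly complementary targets. Three trials were pooled, k3 was capped at 0.0001 min^-1, and the pre-steady-state cleavage rate was taken from a burst-and-steady-state fit.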
# [1] = auxiliary factor: 500 nM mouse GTSF1
# [2] = auxiliary factor: none (no GTSF1)
# 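Further: 1 nM active piRISC with 0.1 nM target library at 33 °C single turnover.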
Sequence,pre-steady-state target cleavage rate [1],pre-steady-state target cleavage rate [2]
UCCACCUAGAGCUUGCAUACUAUUUAGUUA,0.391 ± 0.052,0.0225 ± 0.0041
UCGACCUACAGGUUGCUUAGUAUUUAGUUA,1.29 ± 0.062,0.0168 ± 0.0036
UCCUCCUACAGCUUCCUUAGUAUUUAGUUA,0.357 ± 0.037,0.00197 ± 0.0016
UCCUGGAACAGGUUGGAUAGUAUUUAGUUA,0.698 ± 0.06,0.0175 ± 0.0039
UCGACCUACAGCUUGCAUAGAAUAUAGUUA,0.393 ± 0.034,0.0127 ± 0.0033
AGGACCUUCAGCUUGCAUAGUAUUUACUUA,0.358 ± 0.036,0.0371 ± 0.0065
UCCUGGAUCAGCAUGCAUAGUAUAUAGUUA,0.442 ± 0.047,0.00638 ± 0.0021
UCCUGGAACAGCUUGCAAUCUAUUUAGUUA,0.0462 ± 0.0065,0.00409 ± 0.0037
UCCACCUACAGCUUGCAUAGUCAUUUAGUUA,0.0237 ± 0.0078,0.00374 ± 0.0029
UCCUGGUACUGCUUGCAUAGUAUUAAGUUA,0.186 ± 0.046,0.0113 ± 0.0027
UGGACCUACAGCUUGCUUAGUAUUUUGUUA,1.03 ± 0.072,0.0186 ± 0.0042
AGGACCUUCAGCUUGCAUUGUAUUUAGUUA,0.966 ± 0.031,0.0424 ± 0.01
UCCUGGAUCAGCUUGCAAAGUAUUUACAAA,0.144 ± 0.025,0.00355 ± 0.0026
UGGACCUACAGCUUGCAUAGUUUUUAGUUA,0.473 ± 0.028,0.0341 ± 0.0085
UCCUGCUACAGCUUGCAUUGUAUUUAGUUA,1.02 ± 0.045,0.0265 ± 0.0052
UCCUGCUACAGCUAGCAUAGUAUUAAGUUA,0.855 ± 0.059,0.00433 ± 0.0021
UCGAGCUACAGCUUGCAUAGUAUUUUGUUA,1.06 ± 0.06,0.0528 ± 0.0088
UCCUCGUACAGCUUGCAUAGUAUUUACAAA,0.343 ± 0.038,0.00367 ± 0.002
UCCUGGAUGAGCUUGCAUAGUAUUUACUAA,0.0842 ± 0.024,0.00516 ± 0.0024
UCCUGCUACAGCUUGCAAAGUAUUUACUUA,0.311 ± 0.031,0.0217 ± 0.0044

Sequence,pre-steady-state target cleavage rate [1],pre-steady-state target cleavage rate [2]
UCCUGGAUCACCUUGCAUUGUAUUUAGUUA,0.0582 ± 0.01,0.00816 ± 0.0021
UCCUGCUACAGCUUGCAAAGUUUUUAGUUA,0.283 ± 0.03,0.0158 ± 0.0037
UCCUGGAUGAGCUUGCAUAGUAUAAAGUAA,0.103 ± 0.022,0.00364 ± 0.0029
UCCUCCUACAGCAUGCAAAGUAUUUAGUUA,0.952 ± 0.048,0.0107 ± 0.0027
UGGACCUAGAGCUUGCAUAGUAUUUAGAUA,0.259 ± 0.029,0.0209 ± 0.0041
UGGACGUACAGCUUGCAUAGUAUUUAGUUA,1.26 ± 0.051,0.0691 ± 0.012
UGGACCUACUGCUUGCAUAGUAUUUACAAA,0.0849 ± 0.014,0.00793 ± 0.0024
UCCUGGAAUCAGCUUGCAUAGUAUUUAGUUA,1.1 ± 0.055,0.0857 ± 0.019
UGGACCUACAGCUUGCAUCGUAUUUAGUUA,0.408 ± 0.019,0.0304 ± 0.0069
AGGACCUACAGGUUGCAUAGUAUUUACUUA,0.38 ± 0.054,0.0386 ± 0.008
AGGACCUACAGCAUUGCAUAGUAUUUAGUUA,1.28 ± 0.12,0.0689 ± 0.014
UCCUGGAUGUCCUGGCAUAGUAUUUAGUUA,0.00913 ± 0.0029,0.00347 ± 0.0027
UCCUGGAACAGCUUGCAUAGUAUUUAGUUG [g2:g23:cont:t1G],0.591 ± 0.032,0.0542 ± 0.01
UCCUCCUACAGCUUGCAUAGUAUAUAGAUA,0.197 ± 0.031,0.00345 ± 0.0023
UCGACCUUGAGCUUGCAUAGUAUUUAGUUA,0.789 ± 0.057,0.0478 ± 0.0086
UCCUGCUACAGCUUGCAUAGUAUAUAGUUA,0.433 ± 0.036,0.0162 ± 0.0032
UCCUCCUACAGGUUGGAUAGUAUUUAGUUA,0.949 ± 0.063,0.0262 ± 0.0049
AGGACCUACAGCAUGCAUUGUAUUUAGUUA,0.835 ± 0.042,0.0152 ± 0.0043
UCGACCUACAGCUUGACAUAGUAUUUAGUUA,0.952 ± 0.072,0.00438 ± 0.0026
UCGACCUACAGCUUGCUUAGUAUUUAGAUA,0.379 ± 0.032,0.0129 ± 0.0033

Sequence,pre-steady-state target cleavage rate [1],pre-steady-state target cleavage rate [2]
UGGACCUUCAGCUUGCAUAGUUUUUAGUUA,0.438 ± 0.025,0.0391 ± 0.0094
UCCUGCUACACCUUGCAUAGUAUUUACUUA,0.229 ± 0.056,0.0124 ± 0.0051
UCCUGGAUGUGCUUGCAUAGUAUUUAGUCA,0.194 ± 0.017,0.0167 ± 0.004
UCCUGCUAGAGCUUGCUUAGUAUUUAGUUA,0.492 ± 0.047,0.0179 ± 0.0037
UGGACCUACAGCUUGCAAAGUAUUUUGUUA,0.783 ± 0.042,0.0169 ± 0.0033
UGGACCUACAGCAUGCAUAGUAUUUUGUUA,0.807 ± 0.066,0.0191 ± 0.0055
UCCUGCUACUGCUUGCAUAGUAUUUACAAA,0.0981 ± 0.019,0.0026 ± 0.0021
UCCACCUACAGCUUGGAUAGUAUUAAGUUA,0.505 ± 0.048,0.0176 ± 0.0034
ACGACCUACAGCUUGCAUAGUAAUUAGUUA,1.02 ± 0.036,0.035 ± 0.0076
UCCUGGAUCAGCUUGCAUAGUAUUUACAUA,0.111 ± 0.017,0.00862 ± 0.0023
UCGACCUUGAGCUUGCAUAGUAUUUAGAAA,0.439 ± 0.059,0.00608 ± 0.0026
AGGACCUUGAGCUUGCAUAGUAUUUAGAAA,0.335 ± 0.04,0.0105 ± 0.0044
UGGAUCCUACAGCUUGCAUAGUAUUUAGUUA,1.37 ± 0.071,0.0869 ± 0.014
UCCACCUACAGCUUGCAUAGUAUUUAUUUA,0.395 ± 0.047,0.028 ± 0.0061
UGGACCAACAGCUUGCAUAGUAUUUAGAAA,0.403 ± 0.034,0.0158 ± 0.0043
UCGACGUACAGCUAGCAUAGUAUUUAGUUA,1.23 ± 0.056,0.0266 ± 0.0062
UCCUCCUUGAGCUUGCAUAGUAUUUAGAAA,0.307 ± 0.043,0.00429 ± 0.0016
UCCUGCUAGAGCAUGCAUAGUAUUUAGUUA,0.62 ± 0.043,0.0119 ± 0.0032
UCCACCUACUGCAUGCAUAGUAUUUAGUUA,0.993 ± 0.029,0.0308 ± 0.0066
UCCUGGAUGAGCUAGCAUUGUAUUUAGUUA,0.095 ± 0.012,0.00615 ± 0.0028
